# According to the supplement of paper PMC11417369:
# This is one part of the list.
# Tested on: PF3D7_0420300 AP2 domain 1 (GST-tagged)
# Experiment: gcPBM binding intensity (ln(normalized median fluorescence intensity)); higher = stronger DNA binding
# Method in brief: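 Binding intensity values are the highest Masliner-normalised natural-log median intensity among replicate spots of either probe orientation. The binding step lasted 1 h in 1× PBS with 1% milk, 0.2 mg/ml BSA, 0.5% salmon testes DNA and 0.03% Triton X-100, using GST-tagged P. falciparum DNA-binding domains expressed in E. coli on an Agilent 4 × 180k array of primer-extended double-stranded 36-bp intergenic genomic probes plus negative controls. Alexa488 anti-GST antibody and a 488 nm scan detected bound protein.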
row,Sequence,gcPBM binding intensity (ln)
1,GGAAAATCTTTATAATGTACATTATGATTATATAAT [XGTACX_site6256],9.23
2,AAATATAAAGTGCACACACACAAAAAAAGAAAAAAA [CACACA_site6452],9.97
3,AAAAAAAAAAAAAAAACACACATAAAAATATAATAA [CACACA_site3855],9.53
4,ATTATATATAATATAGTGCATGTAAAAAATAAAACA,9.48
5,AAGAATATTATAAACACACACTTTATAAAGAATTAT [CACACA_site4241],9.63
6,TATATAATTGTCTTCACACACACATATATATATATA [CACACA_site2744],9.94
7,TATTTTATTTGTATATTCATTTGTATAATATAAATA [TGCATGCA_negctrl_site267],9.16
8,AAATGTAATATAAATAGTACATATTAAATAAAATTA [XGTACX_site6917],9.21
9,ATGTGCACATATAAAAGTACACGCACATATATATAT [XGTACX_site1238],9.24
10,TGCACAAAGTTATGCACACACCTAAAATTAATTTTT [CACACA_site7385],9.45
11,TTATAATATGTATACACACACATATATAGATATATA [CACACA_site7159],9.49
12,GTACATAGGTATAGCACACACAAATGTAGGTATTTT [CACACA_site4049],9.65
13,ATTCTTTATATGCATACACACCTAATATAGGGACCT [CACACA_site6830],9.42
14,ACTTTAGAAATAGAGGTGCTATTTTTATTACCACAC,9.27
15,AAAAATTTATTTAAAAGTACATAAAATAAAGGTGGA [XGTACX_site7591],9.42
16,TATTACATTATATAAACATGCAAAACTATATATTAT [TGCATGCA_site601],9.3
17,ATTTTAGAATTTAATACACACAAAAAAAAAAAATTA [CACACA_site3704],9.39
18,TTGATGTTGGTAGGATGTACGGTACCGGTAGTATTT [XGTACX_site6642],9.34
19,AATTTATTTTTTTGATGTACATACAATTTATCACAA [XGTACX_site5936],9.19
20,AAGGAAAAGTAAAGAAGTACTGTACCGCCAAAAAAA [XGTACX_site2607],9.54
21,AAAATAATAAAAAGGGGTACAAAGAAACAAATATAA [XGTACX_site296],9.73
22,TATGTGCATATAAACTCACACATTGTATATTACATG [CACACA_site6106],9.35
23,ATAAAATAACACAACGTTGACAAATTTGGATGACTC [XGTACX_negctrl_site324],9.67

row,Sequence,gcPBM binding intensity (ln)
1,TTTATTAAAATATTCTCACACACCAAAATATGTATG [CACACA_site932],9.37
2,ATATATGTAGATATATGTACATATATAGGTAGATAT [XGTACX_site7589],9.53
3,TATACGTATTACAGAGTGCAATAAACAGTATATATT,9.43
4,TATATATGTGTATAGAGTACACGTTTTTTTTAATAT [XGTACX_site3128],9.29
5,AAAAACCTGAACTGTGCATGTCATACTTTTACTTTT [TGCATGCA_site73],9.48
6,TAAATACATCTATGCACACAAAAAAATATATATTTT [CACACA_site5027],9.5
7,TGTATAAACTTTACGTGTACATGAATAATCTATAAT [XGTACX_site3801],9.18
8,AAAATGGAACTAGGAATAATATAAGAAGATAAAAGG [XGTACX_negctrl_site347],9.55
9,TTGTACAAAAATAATGCACACTATATCAAGTTTTTT [CACACA_site5898],9.28
10,TAATCATTTTAGCTTACACACAAAATTTTGTTATAA [CACACA_site2939],9.51
11,AAAATAATTTTATAAGTGCAAAATAGCTTATTTATA,8.91
12,TTTATAAATTCTCTTTTTAAAAAATATTTTTATACT [CACACA_negctrl_site427],8.93
13,GTTCAAATTATTATGTGTACTAAAGAATATTTTAAA [XGTACX_site3166],8.85
14,TCTATTTTTTATATGGTGCATTGTTCTTATTAATAT [GTGCAC_site9392],9.52
15,CTTTATTTTTTATACACACACAATATGTATTTATAT [CACACA_site5879],9.81
16,AATTAATTTATGTTACGTACATAAGTATTATATTTT [XGTACX_site388],9.22
17,AGGAAAAATAATTATTCACACAATAAATATATTTGA [CACACA_site5824],9.18
18,GTAAAACAGATTTACAGTACACATGTGTTATGTTTT [XGTACX_site2933],9.5
19,TTTTTATATTTTATTATTTTTTTTATATAAAAAATT [CACACA_negctrl_site601],9.05
20,TTTATATATAAATAATGTACAAAAAATTTTAAAAAG [XGTACX_site7990],9.07
21,ATAAAAATATTTGAATGTACTTATAAGATATATATA [XGTACX_site4257],9.13
22,GATGTATTCATACATGCACACGTACATATTTAAATA [CACACA_site9299],9.34
23,TATTTTAATTTTTGTTGTACGCAAATGTGAGGGCAT [XGTACX_site4663],9.17

row,Sequence,gcPBM binding intensity (ln)
1,TAAACCAAAAAAAGTAGTACAAATATTATAAAAAAA [XGTACX_site8497],9.4
2,AAATCGTGCACGGACACATGCAGTAGCCGAGAATTA [TGCATGCA_site733],9.26
3,TGTTTATTTATTTGTGTGCACTCAGATTATATTATA [GTGCAC_site9510],9.53
4,GTTCATAAATTAAACACACACACACGGCTGGATACC [CACACA_site7545],10.1
5,AGGTAGAAAAAAGACACACACATTAGATATTTATAT [CACACA_site6313],9.9
6,AGTATATATACACAAGGGGAATACATATACAAAATT [TGCATGCA_negctrl_site244],9.49
7,TGGGTAATACATAATACACACATGTATATGTCGCAT [CACACA_site1125],9.49
8,AAATTTATATAATATTGTACATTAAAAATTATATAT [XGTACX_site8009],9.11
9,TTTTTAAAAAAGATAAGCGAAAGAATTAATTTTTAA [GTGCAC_negctrl_site197],8.84
10,TATGTATAAATATATGCACACATATATATATTTATA [CACACA_site9150],9.25
11,AAGTTGTATATTGATTGTACTTGTTTAGGGTTATAG [XGTACX_site2953],9.42
12,ATATATATAATAAACACACACATATACATATATGTA [CACACA_site3462],9.75
13,AGGTAAAATATACATTGTACATATAATTAATTTATT [XGTACX_site626],9.27
14,TATATATATATAATGTGTACACAAATATATATTATA [XGTACX_site8786],9.22
15,TATTAACACTTTATAGAAACAAAAAAATAAGCAAAA [XGTACX_negctrl_site295],9.42
16,TTTGAATTTTTTAACACACACATGTGTGGATATATA [CACACA_site6872],9.65
17,ATTATTACACAACGTTGTACATTTCAATATTTTTAT [XGTACX_site5096],9.52
18,AAAATAATATATAATTGTACTTTTTTTTTATATATA [XGTACX_site6093],9.19
19,TCCTCTTCAATATATATATATTATAAATAAATAAAT [CACACA_negctrl_site1756],8.95
20,TTTCTTTTTTTTTAATGTACTTTTTTTATAAAAGGT [XGTACX_site5688],9.03
21,TTTTTTCTTAAAATTTGTACATAGTGCAATTTTTTT [XGTACX_site5509],8.97
22,TGTACATATATATATATAATAATAGTTATGTTTATT [CACACA_negctrl_site1474],9.29
23,TTTTTTTATAGCTAAACACACATAAGAATATATGTT [CACACA_site1099],9.09

row,Sequence,gcPBM binding intensity (ln)
1,AATATAAATTAATTTACACACTAAAAAATATTTATA [CACACA_site7728],9.3
2,ACATACTTTAATATATGTACATAAGAAAAAAAAAAA [XGTACX_site2991],9.23
3,TATAAGAATGACAAGTGTACATATCAAATATATTAG [XGTACX_site7113],9.27
4,TATTTTTTATATTTATTTATTTAAAGGAGCTTTTCT [GTGCAC_negctrl_site293],8.96
5,TATACTAAAAAATACACATGCACATACAATATATAT [TGCATGCA_site1016],9.77
6,TTTATTTTGTAGTGTACACATATATATATATATATA [CACACA_site5843],9.34
7,TGAGTATTTTTTTAATGTACTTATATTAAAAGGAAA [XGTACX_site6286],8.78
8,TATATTTTTTTTCTAGTGCATATTATTAATTAAGTT,9.26
9,AAAATATTATTTTGTTGTACATATAAAATTTTAAGC [XGTACX_site1866],8.99
10,TACAAAATAAGACATGCATGTTATACATATATATTT [TGCATGCA_site321],9.4
11,ATATAAAATAGACACGCACACAAAAAAAAAAAAAAA [CACACA_site3522],9.5
12,CTATAATATAGGTATACACACATATTATAGAATATT [CACACA_site7696],9.47
13,TATGTCAAAAAATAATGTACAAAAAAATTAACATAA [XGTACX_site5463],9.23
14,TATATATGGAAAAGGTGTACATTCAATATATATATA [XGTACX_site3167],9.17
15,ATAAATCATAAGGAGAGTACATAAATAAAATAATCA [XGTACX_site8825],9.35
16,CTCAATATATTTGATTTACACACTTACAATGTATAT [CACACA_site8982],9.46
17,TATTAAAGATACTCGGTATAAATAAATTTTAATGTG [XGTACX_negctrl_site239],9.15
18,AAGTGGCATATAAGTAAAAAATATATACAAGTATAT [GTGCAC_negctrl_site427],9.31
19,ATGCTTATTATTTATTGTACTGAATAAATATATCTG [XGTACX_site4483],9.36
20,ACAACATGCACACGCACACACAAAAAAAGCATGCAT [CACACA_site6185],9.82
